B1: Caulobacter ParB omega fusion; a variant is named by its letters at X, in order, B8GW30 (parent)
chain: MESVVVGEPGMSEGRRGLGRGLSALLGEVDAAPAQAPGEQLGGSREAPIEILQRNPDQPRRTFREEDLEDLSNSIREKGVLQPILVRPSPDTAGEYQIVAGERAWRAAQRAGLKTVPIMVRELDDLAVLEIGIIENVQRADLNVLEEALSYKVLMEKFERTQENIAQTIGKSXSHVANXMRLLXLPDEVQSYLVSGELTAXHARAIAAAADPVALAKQIIEGGLSVRETEALARKAPNLSAGKSKGGRPPRVKDTDTQALESDLSSVLGLDVSIDHRGSTGTLTITYATLEQLDDLCNRLTRGI

Over roughly 81,000 sequences, “one-hybrid fitness for binding parS DNA” has its median near -0.17; the highest 2% begin near 0.51. The list shows a part of the results. A value given as a limit tells only on which side of the number the result lay.

The variants in this assay derive from B1. Put plainly: one-hybrid fitness for binding parS DNA (scaled: cognate 1, non-cognate 0); higher = stronger binding. Particulars: with parS DNA site. A digest of the protocol: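 On M9-minus-histidine containing 0.1 mM IPTG and 5 mM 3-AT, E. coli USO cells with a HIS3 reporter, site 19 bp from the promoter, grew 48 hours at 37°C to select Caulobacter ParB libraries randomised at four specificity codons. Plasmids from before and after were Illumina-sequenced, with three replicate libraries pooled and variants under 10 reads left out. Fitness is the log change in variant-to-wild-type read ratio, rescaled against cognate and non-cognate.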
With SLHL, the “one-hybrid fitness for binding parS DNA” value was at most 0.2.

In the case of DTYN, the “one-hybrid fitness for binding parS DNA” value is at most 0.2.

CYPQ: the “one-hybrid fitness for binding parS DNA” value is at most 0.2.

In the case of TYIF, the “one-hybrid fitness for binding parS DNA” value was at most 0.2.

As for HRCI, the “one-hybrid fitness for binding parS DNA” value was at most 0.2.

In the case of LKNL, the “one-hybrid fitness for binding parS DNA” value was at most 0.2.

Turning to TNQD, the “one-hybrid fitness for binding parS DNA” value is at most 0.2.

For YMMG, the “one-hybrid fitness for binding parS DNA” value is at most 0.2.

Consider PWSG, for which the “one-hybrid fitness for binding parS DNA” value was at most 0.2.

Turning to DKDW, the “one-hybrid fitness for binding parS DNA” value is at most 0.2.

On to DAQR, for which the “one-hybrid fitness for binding parS DNA” value was at most 0.2.

As to NVYM, the “one-hybrid fitness for binding parS DNA” value is at most 0.2.

As to NLRL, the “one-hybrid fitness for binding parS DNA” value was at most 0.2.

For the variant EISC, the “one-hybrid fitness for binding parS DNA” value is at most 0.2.

Regarding RGVM, the “one-hybrid fitness for binding parS DNA” value was at most 0.2.

As to TWDP, the “one-hybrid fitness for binding parS DNA” value was at most 0.2.

Take RHFS: the “one-hybrid fitness for binding parS DNA” value stood at 0.965.

Regarding QTVC, the “one-hybrid fitness for binding parS DNA” value is at most 0.2.

On to WPPC, for which the “one-hybrid fitness for binding parS DNA” value is at most 0.2.

With RHPS, the “one-hybrid fitness for binding parS DNA” value is 0.475.

On to TDRA, for which the “one-hybrid fitness for binding parS DNA” value is at most 0.2.

Regarding ADYY, the “one-hybrid fitness for binding parS DNA” value is at most 0.2.

With LAQC, the “one-hybrid fitness for binding parS DNA” value was at most 0.2.

QNSM: the “one-hybrid fitness for binding parS DNA” value is at most 0.2.

SEHE: the “one-hybrid fitness for binding parS DNA” value is at most 0.2.

On to CFHG, for which the “one-hybrid fitness for binding parS DNA” value is at most 0.2.

Turning to RYLY, the “one-hybrid fitness for binding parS DNA” value worked out at 0.462.

Regarding RQVM, the “one-hybrid fitness for binding parS DNA” value was at most 0.2.

As for SPYC, the “one-hybrid fitness for binding parS DNA” value was at most 0.2.

Consider GDCC, for which the “one-hybrid fitness for binding parS DNA” value was at most 0.2.

As for ENKA, the “one-hybrid fitness for binding parS DNA” value was at most 0.2.

Regarding TLDG, the “one-hybrid fitness for binding parS DNA” value was at most 0.2.

Regarding ESVI, the “one-hybrid fitness for binding parS DNA” value was at most 0.2.

Turning to GHPP, the “one-hybrid fitness for binding parS DNA” value was at most 0.2.

As to VRSG, the “one-hybrid fitness for binding parS DNA” value is at most 0.2.

Turning to SSQA, the “one-hybrid fitness for binding parS DNA” value was at most 0.2.

Take ARYT: the “one-hybrid fitness for binding parS DNA” value is at most 0.2.

Regarding CNPR, the “one-hybrid fitness for binding parS DNA” value was at most 0.2.

Regarding QAVR, the “one-hybrid fitness for binding parS DNA” value is at most 0.2.

Regarding ARGP, the “one-hybrid fitness for binding parS DNA” value was at most 0.2.

In the case of YAKS, the “one-hybrid fitness for binding parS DNA” value is at most 0.2.

With WSEG, the “one-hybrid fitness for binding parS DNA” value is at most 0.2.

ATIE: the “one-hybrid fitness for binding parS DNA” value is at most 0.2.

In the case of STSA, the “one-hybrid fitness for binding parS DNA” value was at most 0.2.

Consider NHHG, for which the “one-hybrid fitness for binding parS DNA” value is at most 0.2.

For the variant MPHL, the “one-hybrid fitness for binding parS DNA” value is at most 0.2.

Consider EKYC, for which the “one-hybrid fitness for binding parS DNA” value is at most 0.2.

With SMNI, the “one-hybrid fitness for binding parS DNA” value is at most 0.2.

As to FTVL, the “one-hybrid fitness for binding parS DNA” value is at most 0.2.

SDTM: the “one-hybrid fitness for binding parS DNA” value was at most 0.2.

On to YQCS, for which the “one-hybrid fitness for binding parS DNA” value was at most 0.2.

Regarding HMDT, the “one-hybrid fitness for binding parS DNA” value is at most 0.2.

Turning to NSAI, the “one-hybrid fitness for binding parS DNA” value is at most 0.2.

On to IRQR, for which the “one-hybrid fitness for binding parS DNA” value is at most 0.2.

Take PILN: the “one-hybrid fitness for binding parS DNA” value was at most 0.2.

Consider VSPV, for which the “one-hybrid fitness for binding parS DNA” value was at most 0.2.

Regarding RLKL, the “one-hybrid fitness for binding parS DNA” value was at most 0.2.

With FKMS, the “one-hybrid fitness for binding parS DNA” value is at most 0.2.

In the case of PVHG, the “one-hybrid fitness for binding parS DNA” value was at most 0.2.

Consider QRET, for which the “one-hybrid fitness for binding parS DNA” value is at most 0.2.

For LRQA, the “one-hybrid fitness for binding parS DNA” value was at most 0.2.

Turning to DDYY, the “one-hybrid fitness for binding parS DNA” value was at most 0.2.

On to IILC, for which the “one-hybrid fitness for binding parS DNA” value was at most 0.2.

As for VPTC, the “one-hybrid fitness for binding parS DNA” value is at most 0.2.

Turning to QKCG, the “one-hybrid fitness for binding parS DNA” value was at most 0.2.

For QSMD, the “one-hybrid fitness for binding parS DNA” value is at most 0.2.

Consider FRRT, for which the “one-hybrid fitness for binding parS DNA” value is at most 0.2.

For the variant NWVT, the “one-hybrid fitness for binding parS DNA” value is at most 0.2.

For WFHT, the “one-hybrid fitness for binding parS DNA” value was at most 0.2.

Turning to HVQT, the “one-hybrid fitness for binding parS DNA” value was at most 0.2.

Take GYRK: the “one-hybrid fitness for binding parS DNA” value is at most 0.2.

For PQTH, the “one-hybrid fitness for binding parS DNA” value is at most 0.2.

In the case of DDRR, the “one-hybrid fitness for binding parS DNA” value was at most 0.2.

For the variant LNRL, the “one-hybrid fitness for binding parS DNA” value is at most 0.2.

For the variant AYSW, the “one-hybrid fitness for binding parS DNA” value is at most 0.2.

Take PVGL: the “one-hybrid fitness for binding parS DNA” value was at most 0.2.

As for RRQE, the “one-hybrid fitness for binding parS DNA” value is at most 0.2.

These data come from a collection of fitness landscapes (doi:10.1016/j.celrep.2020.107928).
